# Measured values from PubChem BioAssay AID686979 (National Center for Advancing Translational Sciences (NCATS), 2013).
# Values joined by “and” are separate entries in the source; they are usually repeats but may differ in a detail not shown here. Identical values can stand only once. Among all 420,000 compounds or so, about 50,000 (12%) were called active. The inconclusive results got no clear call from the source; some entries with a clear call stand among them for comparison. Calls follow the shape of the dose curve; as a rule, active = well fitted inhibition curve with a large enough effect; inconclusive = small, poorly fitted or top-dose-only effect; inactive = flat fitted curve, though single readings scatter. Potencies of inconclusive entries are doubtful fits and often do not repeat.
# Experiment: qHTS for Inhibitors of human tyrosyl-DNA phosphodiesterase 1 (TDP1): qHTS in cells in presence of CPT; also: nearly all actives have a fitted effect of over 55% in size
# Details: chicken DT40 Tdp1-/-;hTDP1 cells + 20 nM CPT, ATP luminescence, 48 h; activity change, negative = growth inhibition: at 46.2 µM (top of the series) unless noted
# Outline: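 Chicken DT40 Tdp1-/- cells stably complemented with human TDP1 were seeded at 400 cells/well in medium containing 20 nM camptothecin, exposed to pin-transferred compounds, and grown at 37 °C for at least 48 hr. Viability was read as ATP luminescence.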
# % is scaled to controls: 0 for no effect and ±100 for the full control effect; potency is read from the fitted curve at half-maximal effect; tags tell the direction and shape of the fitted curve.
Structure (SMILES),Potency,"activity change, negative = growth inhibition"
CCOc1ccc(N2CC(C(=O)NCCc3c[nH]c4ccc(OC)cc34)CC2=O)cc1 (stereo not drawn),inactive,–
CCOC(=O)C1=C(CS(=O)(=O)c2ccc(F)c(C)c2)NC(=O)NC1c1ccc(F)c(F)c1 (stereo not drawn),"inconclusive: 29.1 µM [inhibitor, single point]",–
Cc1ccc(OCCC(=O)Nc2ccccc2C(=O)NC2CC2)cc1,"inconclusive: 29.1 µM [inhibitor, single point]",–
CC(C)(C)c1ccc(C(=O)NC(=O)COC(=O)c2ccc(Br)o2)cc1,"inconclusive: 13 µM [inhibitor, partial curve, poor fit]",–
COC(=O)C1CC(c2ccc(Cl)cc2)=NO1 (stereo not drawn),inactive,–
Cc1cc(C(=O)CN2C(=O)C(=O)N(C)C2=O)c(C)n1-c1cccc(S(=O)(=O)N2CCOCC2)c1,"inconclusive: 6.51 µM [inhibitor, full curve, poor fit]",–
CCOc1ccc(NC(=O)COc2cccc3c2CCN(Cc2cccnc2)C3=O)cc1,"inconclusive: 25.9 µM [inhibitor, single point]",–
COc1ccc(OC)c(CCNc2ncnc3onc(C)c23)c1,active: 7.31 µM,–
Cc1ccc(CNC(=O)CCCOc2cc(=O)n(C)c3ccccc23)o1,"inconclusive: 29.1 µM [inhibitor, single point]",–
O=C(c1ccc(Cl)c([N+](=O)[O-])c1)N(Cc1ccc(Cl)cc1)C1CCS(=O)(=O)C1 (stereo not drawn),"inconclusive: 18.4 µM [inhibitor, partial curve, poor fit]",–
O=C(COc1ccc([N+](=O)[O-])cc1)N/N=C/c1cc([N+](=O)[O-])ccc1N1CCOCC1,"inconclusive: 18.4 µM [inhibitor, single point]",–
O=C(c1ccc(Cl)cc1)N1CCN(S(=O)(=O)/C=C/c2ccccc2)CC1,"inconclusive: 18.4 µM [inhibitor, single point]",–
Cc1ccccc1N(C)C(=O)C1CCCN(c2ncnc3c2nc2n3CCCCC2)C1 (stereo not drawn),"inconclusive: 20.6 µM [inhibitor, single point]",–
CNC(=S)N1CCC(c2nc3ccccc3s2)CC1,"inconclusive: 32.6 µM [inhibitor, single point]",–
CCOC(=O)c1sc2nc(OCc3cccnc3)cc(C)c2c1N,"inconclusive: 25.9 µM [inhibitor, single point]",–
COc1ccc(NS(=O)(=O)c2cc3c4c(c2)CC(=O)N4CCC3)cc1Cl,"inconclusive: 18.4 µM [inhibitor, partial curve]",–
Cc1cc(/C=N/NC(=O)c2ccsc2)c(C)n1-c1cnccn1,inactive,–
COc1ccccc1N1C(=O)C2C(C(=O)c3ccccc3)=NN(c3ccc(Br)cc3)C2C1=O (stereo not drawn),inactive,–
COc1ccc(NS(=O)(=O)c2cc(-c3cnc(C4CC4)o3)ccc2C)cc1,active: 6.51 µM,–
CCOC(=O)c1ccc(NC(=S)Nc2ccccc2)cc1,"inconclusive: 29.1 µM [inhibitor, single point]",–
Nc1c(-c2nn[nH]n2)cnn1-c1cc(Cl)cc(Cl)c1,inactive,–
COc1cc(C)ccc1N(CCCN1C(=O)c2cccc3cccc(c23)C1=O)C(=O)c1cccs1,active: 9.2 µM,–
O=C(NC1(C(F)(F)F)N=C(c2ccccc2)N(C2CCCCC2)C1=O)c1ccccc1F (stereo not drawn),"inconclusive: 29.1 µM [inhibitor, single point]",–

Structure (SMILES),Potency,"activity change, negative = growth inhibition"
N/C(=N\OC(=O)Nc1ccccc1)c1cccc(C(F)(F)F)c1,inactive,–
Cc1ccc(-c2ccc(/C=C3/NC(=O)NC3=O)o2)cc1[N+](=O)[O-],"inconclusive: 25.9 µM [inhibitor, single point]",–
COc1ccc(-c2noc(CSc3nnc(-c4ccncc4)n3-c3cccc(C)c3)n2)cc1OC,"inconclusive: 20.6 µM [inhibitor, single point]",–
COCc1cc(=O)[nH]c(SCCS(=O)(=O)c2ccc(Cl)cc2Cl)n1,active: 20.6 µM,–
CSc1ccccc1NC(=O)COc1ccc(Cl)cc1Cl,–,inconclusive: -29.6% [inhibitor]
COc1ccc(-n2c(=O)c(-c3ccccc3)nc3cnc(N4CCOCC4)nc32)cc1,inactive,–
COc1cccc(C(=O)Oc2cc3c4c(c2)C(C)=CC(C)(C)N4C(=O)C3=O)c1,active: 3.66 µM,–
CCC(NC(=O)c1ccccc1NC(=O)c1ccccc1)C(=O)OC (stereo not drawn),"inconclusive: 32.6 µM [inhibitor, single point]",–
CC(=O)Nc1ccc(-c2nnc3n(CC(C)C)c(=O)c4ccccc4n23)cc1,"inconclusive: 25.9 µM [inhibitor, single point]",–
CC(=O)c1c(C)[nH]c(C(=O)NNC(=O)c2ccc(Br)cc2)c1C,inactive,–
COc1ccc2cc(C3=CC(=O)C[C@H](c4ccc5c(c4)OCO5)C3)ccc2c1,"inconclusive: 20.6 µM [inhibitor, single point]",–
CCC(C(=O)OCC(=O)N1CCN(c2ccc(OC)cc2)CC1)c1ccccc1 (stereo not drawn),"inconclusive: 18.4 µM [inhibitor, single point]",–
O=C(Nc1ccc(Br)cn1)c1ccc(Br)s1,"inconclusive: 29.1 µM [inhibitor, single point]",–
COCCCn1c(=S)[nH]c2sc3c(c2c1=O)CCCC3,"inconclusive: 29.1 µM [inhibitor, single point]",–
O=C(c1ccncc1)N1CCC2(CCN(Cc3nccs3)CC2)CC1,inactive,–
OC[C@@H]1CN(CCc2ccccc2)C[C@H](n2cnc3c(NCc4ccc(F)cc4)ncnc32)O1,"inconclusive: 29.1 µM [inhibitor, single point]",–
O=C(c1cc2ccccc2o1)c1nc2c(n1O)CCCCC2,–,inconclusive: -30.7% [inhibitor]
Cc1csc2c(N3CCN(C(=O)NC(C)(C)C)CC3)ncnc12,active: 14.6 µM,–
Cn1c(SCc2ccc(Cl)cc2)nnc1-c1ccc(NC(=O)CCc2ccccc2)cc1,"inconclusive: 20 µM [inhibitor, single point]",–
CCc1ccc(OCC2c3cc(OC)c(OC)cc3CCN2C(=O)Cc2ccc(OC)c(OC)c2)cc1 (stereo not drawn),"inconclusive: 0.0103 µM [inhibitor, full curve, poor fit]",–
Cc1ccc(OCCN2CCC2(C)C(=O)NCc2ccc(C(F)(F)F)cc2)cc1 (stereo not drawn),"inconclusive: 16.4 µM [inhibitor, single point]",–
COc1cc2c(cc1NC(=O)C(C)Oc1ccc(Cl)cc1Cl)oc1ccccc12 (stereo not drawn),inactive,–
COC(=O)c1n[nH]n(-c2cc(Cl)cc(Cl)c2)c1=O,inactive,–

Structure (SMILES),Potency,"activity change, negative = growth inhibition"
NS(=O)(=O)c1ccc(CCNC(=O)CN2CCN(c3ccc(F)cc3)CC2)cc1,"inconclusive: 20.6 µM [inhibitor, single point]",–
COc1ccc(NC(=O)c2oc3ccc4c(c3c2C)C(=O)CC(C)(C)O4)cc1OC,active: 20.6 µM,–
O=C(c1ccc(CNS(=O)(=O)c2ccc(F)cc2)cc1)N1CCCCCC1,"inconclusive: 29.1 µM [inhibitor, single point]",–
CC1CCN(C(C(=O)O)c2ccccc2)CC1 (stereo not drawn),"inconclusive: 5.8 µM [inhibitor, full curve, poor fit]",–
Cc1ccc(NS(=O)(=O)c2ccc(NC(=O)C(C)Sc3ccc(Cl)cc3)cc2)c(C)c1 (stereo not drawn),"inconclusive: 16.4 µM [inhibitor, single point]",–
O=c1cc(-c2ccc(O)c(O)c2)oc2c1ccc1ccccc12,active: 16.4 µM,–
COc1ccc(CCC(=O)NCCc2csc(-c3cccc(F)c3)n2)cc1,"inconclusive: 29.1 µM [inhibitor, single point]",–
CCc1ccc(C(=O)Nc2cc(C)ccc2F)s1,"inconclusive: 10.3 µM [inhibitor, partial curve, poor fit]",–
COC(=O)c1cccc(N(CC(=O)NC2CCCC2)C(=O)CCC(=O)Nc2cc(C)on2)c1,inactive,–
COCCCNC(=O)c1c(N)n(/N=C/c2ccccn2)c2nc3ccccc3nc12,active: 10.3 µM,–
N#Cc1cc(-c2ccccc2)nc(Oc2ccccc2)n1,"inconclusive: 23.1 µM [inhibitor, single point]",–
O=C(O)CCCn1c(O)c(C=C2N=c3ccccc3=N2)sc1=S,"inconclusive: 18.4 µM [inhibitor, single point]",–
CCOC(=O)C(C)Sc1nnc(CNC(=O)c2ccc(OC)cc2)n1C1CCCCC1 (stereo not drawn),–,inconclusive: -33.6% [inhibitor]
CCCCOCCCNC(=O)C[C@@H]1C[C@@]2(C(=O)OC)CCCCC=C2N(CCC2=CCCCC2)C1=O,"inconclusive: 29.1 µM [inhibitor, single point]",–
COC(=O)c1cc(-c2ccccc2)n(CC(=O)O)c1C,inactive,–
Cn1c(-c2ccccc2)cnc1NCc1cccc([N+](=O)[O-])c1,"inconclusive: 29.1 µM [inhibitor, single point]",–
COc1ccc(C(=O)OCc2csc(C)n2)c(O)c1,inactive,–
COc1ccc(Cl)cc1N(CC(=O)N/N=C/c1ccc(OCC(N)=O)cc1)S(C)(=O)=O,inactive,–
Cc1ccc(CCNC(=O)CCCn2nc(C)c3c(C)n(-c4ccc(C)cc4)nc3c2=O)cc1,active: 14.6 µM,–
COc1ccc(NC(=O)CCCN2C(=O)C(c3ccccc3)Oc3cccnc32)cc1OC (stereo not drawn),"inconclusive: 25.9 µM [inhibitor, partial curve] and inconclusive: 25.9 µM [inhibitor, single point]",–
COc1cccc(-c2csc(N3CCN(CC(=O)NNC(=O)c4ccco4)CC3)n2)c1,"inconclusive: 29.1 µM [inhibitor, single point]",–
COc1ccc(CNC(=O)C2CCCN(S(=O)(=O)c3cc(C)ccc3OC)C2)cc1 (stereo not drawn),"inconclusive: 14.6 µM [inhibitor, partial curve]",–
